This passage reports binding signal results from PMC12820563, “FoxP3 forms a head-to-head dimer in vivo and stabilizes its multimerization on adjacent microsatellites”.

Some of the results follow.

This assay deals with T1, MBP-FoxP1dN (Mus musculus, UniProt P58462 326-579).
T1 sequence: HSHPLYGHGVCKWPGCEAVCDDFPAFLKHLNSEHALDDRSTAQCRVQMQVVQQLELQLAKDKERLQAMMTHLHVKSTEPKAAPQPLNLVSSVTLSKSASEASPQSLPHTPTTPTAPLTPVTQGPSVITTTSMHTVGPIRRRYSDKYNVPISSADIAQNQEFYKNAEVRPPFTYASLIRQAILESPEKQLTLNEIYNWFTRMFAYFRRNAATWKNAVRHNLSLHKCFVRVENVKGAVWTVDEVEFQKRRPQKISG
As to the kind of experiment: PD-seq (MBP pull-down with sequencing); 20 mM Tris-HCl pH 7.5, 100 mM NaCl, 1.5 mM MgCl2, 0.4 uM protein, 0.1 uM dsDNA library, 30 min, room temperature, amylose pull-down; high values mean tight binding. Particulars: protein: recombinant; tags: His6-MBP; chain copies: 2; dsDNA, one strand shown. An outline of the steps:
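In Tris pH 7.5 buffer with NaCl and MgCl2, 0.4 µM His6-MBP-tagged mouse FoxP3 or FoxP1 fragment lacking the N-terminus, from E. coli, met 0.1 µM Klenow-filled double-stranded degenerate DNA library for 30 min at room temperature. Three washes on amylose resin followed capture of the complexes, then proteinase K release of DNA, PCR barcoding and Illumina sequencing. Binding is taken as pooled-replicate reads-per-million enrichment of pull-down relative to input.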
As for “GATGATTGTTCTCCCAGCTGATGAATTATCTGGCTCGAGTAAACAAATTTTCCTAATCTTTCTGTTCAAGCGCCATCTAC”, the binding signal is 0.861 RPM ratio (pull-down/input).

In the case of “GATGATTGTTCTCCCAGCTGATGAATTTGGTGTATCGAGTAAACAAATTTTCCTAATCTTTCTGTTCAAGCGCCATCTAC”, the binding signal was 1.17 RPM ratio (pull-down/input).

For the sequence “GATGATTGTTCTCCCAGCTGATGAATTACCATTATCGAGTAAACAAATTTTCCTAATCTTTCTGTTCAAGCGCCATCTAC”, the binding signal is 1.06 RPM ratio (pull-down/input).

Turning to “GATGATTGTTCTCCCAGCTGATGAATTTACCTTTTCGAGTAAACAAATTTTCCTAATCTTTCTGTTCAAGCGCCATCTAC”, the binding signal is 1.35 RPM ratio (pull-down/input).

Turning to “GATGATTGTTCTCCCAGCTGATGAATTTCTGTAGTCGAGTAAACAAATTTTCCTAATCTTTCTGTTCAAGCGCCATCTAC”, the binding signal is 0.942 RPM ratio (pull-down/input).

Turning to “GATGATTGTTCTCCCAGCTGATGAATTTCTCGCGTCGAGTAAACAAATTTTCCTAATCTTTCTGTTCAAGCGCCATCTAC”, the binding signal is 0.918 RPM ratio (pull-down/input).

Turning to “GATGATTGTTCTCCCAGCTGATGAATTTTCATTATCGAGTAAACAAATTTTCCTAATCTTTCTGTTCAAGCGCCATCTAC”, the binding signal was 0.969 RPM ratio (pull-down/input).

Take “GATGATTGTTCTCCCAGCTGATGAATTGGGACATTCGAGTAAACAAATTTTCCTAATCTTTCTGTTCAAGCGCCATCTAC”: the binding signal was 0.913 RPM ratio (pull-down/input).

In the case of “GATGATTGTTCTCCCAGCTGATGAATTAGTCGAGTCGAGTAAACAAATTTTCCTAATCTTTCTGTTCAAGCGCCATCTAC”, the binding signal was 0.956 RPM ratio (pull-down/input).

Regarding “GATGATTGTTCTCCCAGCTGATGAATTCCGCCTATCGAGTAAACAAATTTTCCTAATCTTTCTGTTCAAGCGCCATCTAC”, the binding signal is 0.791 RPM ratio (pull-down/input).

For “GATGATTGTTCTCCCAGCTGATGAATTGTTAGACTCGAGTAAACAAATTTTCCTAATCTTTCTGTTCAAGCGCCATCTAC”, the binding signal is 1.07 RPM ratio (pull-down/input).

As for “GATGATTGTTCTCCCAGCTGATGAATTGAGAGCTTCGAGTAAACAAATTTTCCTAATCTTTCTGTTCAAGCGCCATCTAC”, the binding signal was 0.858 RPM ratio (pull-down/input).

Turning to “GATGATTGTTCTCCCAGCTGATGAATTGAGAATATCGAGTAAACAAATTTTCCTAATCTTTCTGTTCAAGCGCCATCTAC”, the binding signal was 1.04 RPM ratio (pull-down/input).

With “GATGATTGTTCTCCCAGCTGATGAATTAGGTCCGTCGAGTAAACAAATTTTCCTAATCTTTCTGTTCAAGCGCCATCTAC”, the binding signal is 0.87 RPM ratio (pull-down/input).

For the sequence “GATGATTGTTCTCCCAGCTGATGAATTAGAGCTATCGAGTAAACAAATTTTCCTAATCTTTCTGTTCAAGCGCCATCTAC”, the binding signal was 0.956 RPM ratio (pull-down/input).

“GATGATTGTTCTCCCAGCTGATGAATTCCCAGACTCGAGTAAACAAATTTTCCTAATCTTTCTGTTCAAGCGCCATCTAC”: the binding signal was 0.788 RPM ratio (pull-down/input).

“GATGATTGTTCTCCCAGCTGATGAATTTCCAATCTCGAGTAAACAAATTTTCCTAATCTTTCTGTTCAAGCGCCATCTAC”: the binding signal is 0.867 RPM ratio (pull-down/input).

With “GATGATTGTTCTCCCAGCTGATGAATTCATGTCCTCGAGTAAACAAATTTTCCTAATCTTTCTGTTCAAGCGCCATCTAC”, the binding signal was 0.771 RPM ratio (pull-down/input).

In the case of “GATGATTGTTCTCCCAGCTGATGAATTTGATCGTTCGAGTAAACAAATTTTCCTAATCTTTCTGTTCAAGCGCCATCTAC”, the binding signal is 0.901 RPM ratio (pull-down/input).

On to “GATGATTGTTCTCCCAGCTGATGAATTAGACCTTTCGAGTAAACAAATTTTCCTAATCTTTCTGTTCAAGCGCCATCTAC”, for which the binding signal was 0.881 RPM ratio (pull-down/input).

As for “GATGATTGTTCTCCCAGCTGATGAATTTTCCGCCTCGAGTAAACAAATTTTCCTAATCTTTCTGTTCAAGCGCCATCTAC”, the binding signal was 0.923 RPM ratio (pull-down/input).

Consider “GATGATTGTTCTCCCAGCTGATGAATTTAGACCGTCGAGTAAACAAATTTTCCTAATCTTTCTGTTCAAGCGCCATCTAC”, for which the binding signal is 0.941 RPM ratio (pull-down/input).

For the sequence “GATGATTGTTCTCCCAGCTGATGAATTATGGCTATCGAGTAAACAAATTTTCCTAATCTTTCTGTTCAAGCGCCATCTAC”, the binding signal is 0.962 RPM ratio (pull-down/input).

Take “GATGATTGTTCTCCCAGCTGATGAATTCTGGATTTCGAGTAAACAAATTTTCCTAATCTTTCTGTTCAAGCGCCATCTAC”: the binding signal was 0.936 RPM ratio (pull-down/input).

With “GATGATTGTTCTCCCAGCTGATGAATTAACTACCTCGAGTAAACAAATTTTCCTAATCTTTCTGTTCAAGCGCCATCTAC”, the binding signal is 0.879 RPM ratio (pull-down/input).

With “GATGATTGTTCTCCCAGCTGATGAATTCGGAGTGTCGAGTAAACAAATTTTCCTAATCTTTCTGTTCAAGCGCCATCTAC”, the binding signal was 0.801 RPM ratio (pull-down/input).

For the sequence “GATGATTGTTCTCCCAGCTGATGAATTTCACACTTCGAGTAAACAAATTTTCCTAATCTTTCTGTTCAAGCGCCATCTAC”, the binding signal is 0.956 RPM ratio (pull-down/input).

Turning to “GATGATTGTTCTCCCAGCTGATGAATTTCGCAAGTCGAGTAAACAAATTTTCCTAATCTTTCTGTTCAAGCGCCATCTAC”, the binding signal is 0.831 RPM ratio (pull-down/input).

Consider “GATGATTGTTCTCCCAGCTGATGAATTTATTGCATCGAGTAAACAAATTTTCCTAATCTTTCTGTTCAAGCGCCATCTAC”, for which the binding signal was 1.62 RPM ratio (pull-down/input).

Regarding “GATGATTGTTCTCCCAGCTGATGAATTGATGGCGTCGAGTAAACAAATTTTCCTAATCTTTCTGTTCAAGCGCCATCTAC”, the binding signal was 1.01 RPM ratio (pull-down/input).

Turning to “GATGATTGTTCTCCCAGCTGATGAATTTAGTTCCTCGAGTAAACAAATTTTCCTAATCTTTCTGTTCAAGCGCCATCTAC”, the binding signal was 0.864 RPM ratio (pull-down/input).

For “GATGATTGTTCTCCCAGCTGATGAATTCTGGGGCTCGAGTAAACAAATTTTCCTAATCTTTCTGTTCAAGCGCCATCTAC”, the binding signal was 0.742 RPM ratio (pull-down/input).
